Experimental data: the supplement of paper PMC4967469
The IC50 comes from the fitted curve, where viability falls to half of the control; a fit beyond the top or the lowest dose is shown as a bound at that dose. AUC sums up the same curve from the lowest dose to the 256-fold higher top dose; it is 1 without any effect and falls as sensitivity rises. For some of these results: The top dose, if marked as inferred, comes from the curve model; the source does not state it. For some of these results: An entry number marks a drug with two screens in the source, which often give different values.

Assays:
Assay in all cases: Viability of human cancer cell lines after 72 h of drug (GDSC screen)
JNK-9L = compound: Fc1cc(-c2ccnc(Nc3ccc(-n4cnc(N5CCOCC5)n4)cc3)n2)cc(N2CCOCC2)c1 [JNK-9L]; settings: top dose 5.12 µM; top dose inferred
Experimental: (§1)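 Human cancer cell lines in 384-well plates, medium with 10% serum, drug for 72 h over a 256-fold dose range (nine 2-fold or five 4-fold steps up to the top dose). Adherent lines were fixed and stained with the nucleic acid dye Syto60, suspension lines read with resazurin; signal relative to control wells, capped at 0 and 100%. One two-parameter sigmoid per drug and line, fitted in a mixed model over all curves with the slope shared within a line.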

5-Fluorouracil = compound: O=c1[nH]cc(F)c(=O)[nH]1 [5-Fluorouracil]; settings: top dose 32 µM; top dose inferred
Experimental: as §1

RDEA119 = compound: COc1cc(F)c(F)c(Nc2ccc(I)cc2F)c1NS(=O)(=O)C1(C[C@H](O)CO)CC1 [RDEA119]; settings: top dose 5 µM, top dose inferred
Experimental: as §1

OSU-03012 = compound: NCC(=O)Nc1ccc(-n2nc(C(F)(F)F)cc2-c2ccc3c(ccc4ccccc43)c2)cc1 [OSU-03012]; settings: top dose 16 µM; top dose inferred
Experimental: as §1

AC220 = compound: CC(C)(C)c1cc(NC(=O)Nc2ccc(-c3cn4c(n3)sc3cc(OCCN5CCOCC5)ccc34)cc2)no1 [AC220]; settings: top dose 1.024 µM; top dose inferred
Experimental: as §1

QS11 = compound: OC[C@H](Cc1ccccc1)Nc1nc(Oc2ccc3c(c2)CCC3)nc2c1ncn2Cc1ccc(-c2ccccc2)cc1 [QS11]; settings: top dose 10.24 µM
Experimental: as §1

CUDC-101 = compound: C#Cc1cccc(Nc2ncnc3cc(OC)c(OCCCCCCC(=O)NO)cc23)c1 [CUDC-101]; settings: top dose 5.12 µM; top dose inferred
Experimental: as §1

Row | Cell Line | AUC (JNK-9L) | AUC (5-Fluorouracil) | IC50 (5-Fluorouracil) [nM] | AUC (RDEA119; screen: GDSC drug entry 1014) | IC50 (RDEA119; screen: GDSC drug entry 1014) [nM] | AUC (RDEA119; screen: GDSC drug entry 1526) | IC50 (RDEA119; screen: GDSC drug entry 1526) [nM] | AUC (OSU-03012) | IC50 (OSU-03012) [nM] | AUC (AC220) | IC50 (AC220) [nM] | AUC (QS11) | AUC (CUDC-101) | IC50 (CUDC-101) [nM] | IC50 (JNK-9L) [nM] | IC50 (QS11) [nM]
1 | KARPAS-422 (B-cell lymphoma, suspension) | 0.538 | 0.864 | 27300 | 0.969 | > 5000 | 0.982 | > 5000 | 0.669 | 2940 | 0.982 | > 1020 | 0.801 | 0.507 | 334 |  | 
2 | NCI-H1792 (lung adenocarcinoma, adherent) | 0.704 | 0.98 | > 32000 | 0.744 | 1440 | 0.579 | 503 | 0.869 | 12400 | 0.984 | > 1020 | 0.974 | 0.912 | > 5120 | 1120 | > 10200
3 | NALM-6 (B-cell leukaemia, suspension) | 0.454 | 0.412 | 1200 | 0.985 | > 5000 | 0.99 | > 5000 | 0.432 | 673 | 0.922 | > 1020 | 0.783 | 0.376 | 155 | 245 | 3580
4 | NOS-1 (osteosarcoma, adherent) | 0.514 | 0.824 | 25200 | 0.831 | 4200 | 0.863 | > 5000 | 0.621 | 2320 | 0.837 | 919 | 0.868 | 0.477 | 273 | 352 | > 10200
5 | FU97 (stomach, adherent) | 0.583 | 0.974 | > 32000 | 0.712 | 1260 | 0.781 | 2140 | 0.772 | 6370 | 0.965 | > 1020 | 0.923 | 0.655 | 871 | 543 | > 10200
6 | TYK-nu (ovary, adherent) | 0.647 | 0.925 | > 32000 | 0.565 | 478 | 0.723 | 1410 | 0.738 | 5050 | 0.971 | > 1020 | 0.923 | 0.537 | 407 | 845 | > 10200
7 | KARPAS-45 (lymphoblastic leukaemia, suspension) | 0.588 | 0.864 | 20700 | 0.946 | > 5000 | 0.99 | > 5000 | 0.724 | 3780 | 0.958 | > 1020 | 0.896 | 0.228 | 61.8 | 533 | 8860
8 | LU-135 (small cell lung carcinoma, suspension) | 0.529 | 0.924 | > 32000 | 0.992 | > 5000 | 0.99 | > 5000 | 0.453 | 762 | 0.954 | > 1020 | 0.653 | 0.389 | 168 | 379 | 1570
9 | CESS (acute myeloid leukaemia, suspension) | 0.533 | 0.526 | 2330 | 0.976 | > 5000 | 0.948 | > 5000 | 0.615 | 1970 | 0.955 | > 1020 | 0.89 | 0.315 | 106 | 389 | 8880
10 | TGBC24TKB (biliary tract, adherent) | 0.654 | 0.981 | > 32000 |  |  | 0.852 | 3470 | 0.882 | 15100 | 0.933 | > 1020 | 0.99 | 0.654 | 831 | 828 | > 10200
11 | T84 (large intestine, adherent) | 0.686 | 0.813 | 17700 | 0.973 | > 5000 | 0.92 | > 5000 | 0.716 | 4120 | 0.945 | > 1020 | 0.859 | 0.762 | 1860 | 1070 | 8780
12 | NCI-H1155 (large cell lung carcinoma, suspension) | 0.795 | 0.949 | > 32000 | 0.935 | > 5000 | 0.992 | > 5000 | 0.859 | 9690 | 0.993 | > 1020 | 0.96 | 0.664 | 834 | 1910 | > 10200
13 | IPC-298 (melanoma, adherent) | 0.657 | 0.531 | 2430 | 0.223 | 49.6 | 0.244 | 57.9 | 0.868 | 14200 | 0.984 | > 1020 | 0.987 | 0.515 | 352 | 867 | > 10200
14 | PL4 (pancreas, adherent) | 0.615 | 0.96 | > 32000 | 0.728 | 1420 | 0.684 | 1040 | 0.831 | 10700 | 0.987 | > 1020 | 0.971 | 0.763 | 1910 | 672 | > 10200
